# This list was built around the results that the source calls inconclusive (neither active nor inactive); the mix of calls is not that of the screen. Where the call is inconclusive, the potency comes from a doubtful curve fit. Activity calls are given as the source filed them. Calls follow the shape of the dose curve; as a rule, active = well fitted cell-killing curve with a large enough effect; inconclusive = small, poorly fitted or top-dose-only effect, or effect the other way; inactive = flat fitted curve, though single readings scatter.
# Tested on: PA-1
# Test: Primary qHTS to identify gynecologic anti-cancer compounds using libraries of approved drugs and bioactive compounds (AID 1345084); also: nearly all actives have a fitted effect of over 55% in size
# Conditions: Gynecologic cancer cell panel viability, ATPlite luminescence, 48 h; series mostly up to 57.5 µM
# In short: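 Five-concentration response, 48 h; readout is ATP-driven luciferase luminescence.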
# Potency is read from the fitted curve at half-maximal effect; tags tell the direction and shape of the fitted curve.
row,Compound,Potency
1,C=C(C)C(=O)O[C@H]1[C@@H]2[C@H](C)C(=O)O[C@@H]2C[C@@H](C)[C@@H]2C=CC(=O)[C@]21C,active: 3.16 µM
2,C[C@H]1C(=O)O[C@@H]2CCN3CC=C(COC(=O)[C@](C)(O)[C@]1(C)O)[C@H]23,inactive
3,COC(=O)C1(C)CCC(O)C2(C)c3cc(O)c(C(C)C)cc3C(O)C(OC(C)=O)C12 (configuration not stated),"inconclusive: 0.251 µM [rising, partial curve, poor fit]"
4,COC[C@H]1OC(=O)c2coc3c2[C@@]1(C)C1=C(C3=O)C2CCC(=O)[C@@]2(C)C[C@H]1OC(C)=O (some centres not stated),"inconclusive: 7.08 µM [rising, single point]"
5,CC(=O)OC[C@]12[C@H](OC(C)=O)C(=O)[C@@H]3[C@@H](O)[C@@]14O[C@@]3(C)COC(=O)c1cccnc1[C@@H](C)[C@H](C)C(=O)O[C@@H]([C@H](OC(C)=O)[C@@H]2OC(C)=O)[C@]4(C)O,"inconclusive: 3.16 µM [rising, partial curve, poor fit]"
6,Nc1ccccc1C(=O)O,inactive
7,Cc1ccc(-n2nccn2)c(C(=O)N2CCN(c3nc4cc(Cl)ccc4o3)CCC2C)c1 (configuration not stated),"inconclusive: 25.1 µM [cytotoxic, single point]"
8,C[C@H]1O[C@@H](O[C@H]2CC[C@]3(C=O)C4CC[C@]5(C)[C@@H](C6=CC(=O)OC6)CC[C@]5(O)[C@@H]4CC[C@]3(O)C2)C[C@@H](O)[C@@H]1O (some centres not stated),"inconclusive: 0.141 µM [cytotoxic, full curve, poor fit]"
9,C=CC(C)(C)C12C=C(O)C(=O)N3/C(=C\c4cnc[nH]4)C(=O)NC31N(OC)c1ccccc12 (configuration not stated),"inconclusive: 11.2 µM [cytotoxic, single point]"
10,C=CCOC(Cn1ccnc1)c1ccc(Cl)cc1Cl (configuration not stated),"inconclusive: 31.6 µM [cytotoxic, single point]"
11,CCN(CC)Cc1nccn1-c1ccc([N+](=O)[O-])cc1C(=O)c1ccccc1Cl,"inconclusive: 20 µM [cytotoxic, single point]"
12,Clc1ccc(C(OCCN2CCCCC2)c2ccccc2)cc1 (configuration not stated),"inconclusive: 39.8 µM [cytotoxic, partial curve, poor fit]"
13,Oc1ccc2c(c1)C13CCCC[C@H]1[C@@H](C2)N(CC1CCC1)CC3,"inconclusive: 39.8 µM [cytotoxic, single point]"
14,COC1C=CC23c4cc5c(cc4COC2(O)CN(C)C3C1)OCO5 (configuration not stated),"inconclusive: 3.55 µM [rising, full curve, poor fit]"
15,C[C@@H]1C[C@@H]([C@H](O)CC2CC(=O)NC(=O)C2)C(=O)[C@@H](C)C1,active: 0.708 µM
16,C/C=C(\C)C(=O)O[C@@H]1[C@@H](C)[C@]2(O)C3C=C(C)C(=O)[C@@]3(O)CC(CO)=C[C@H]2C2C(C)(C)[C@@]21OC(=O)C(C)CC (some centres not stated),"inconclusive: 0.1 µM [cytotoxic, full curve, poor fit]"
17,c1ccc(C2CC2)c(OCC2=NCCN2)c1,"inconclusive: 7.08 µM [rising, single point]"
18,C[C@H]1O[C@@H](O[C@H]2CC[C@]3(CO)C4CC[C@]5(C)[C@@H](C6=CC(=O)OC6)CC[C@]5(O)[C@@H]4CC[C@H]3C2)[C@H](O)[C@H](O)[C@@H]1O[C@@H]1O[C@H](CO)[C@@H](O)[C@H](O)[C@H]1O (some centres not stated),active: 3.16 µM
19,CC[C@H]1C[C@H]2[C@@H]3CCC4=CC(=O)CC[C@@H]4[C@H]3CC[C@]2(C)[C@H]1O,"inconclusive: 28.2 µM [cytotoxic, single point]"

row,Compound,Potency
1,COc1cc(C)[nH]c(=O)c1CNC(=O)c1c(C)n([C@H](C)C2CCOCC2)c2ccccc12,inactive
2,Clc1ccc(CCC(Cn2ccnc2)Sc2c(Cl)cccc2Cl)cc1 (configuration not stated),"inconclusive: 35.5 µM [cytotoxic, single point]"
3,CO[C@@H]1[C@H](O)[C@@H](O[C@@H]2C[C@H]3CC[C@@H]4C(CC[C@]5(C)[C@@H](C6=CC(=O)OC6)CC[C@]45O)[C@@]3(C)[C@H](O)C2)O[C@H](C)[C@@H]1O[C@@H]1O[C@H](CO)[C@@H](O)[C@H](O)[C@H]1O (some centres not stated),active: 0.398 µM
4,CN1[C@@H]2CC[C@H]1CC(OC(=O)c1cc(Cl)cc(Cl)c1)C2 (some centres not stated),"inconclusive: 25.1 µM [cytotoxic, single point]"
5,CCN(CCO)CCn1c(Cc2ccccc2)nc2c1c(=O)n(C)c(=O)n2C,inactive
6,C#CCOC(C(=O)OCCN(C)C)(c1ccccc1)c1ccccc1,inactive
7,COc1ccc(C(=O)c2c(C)n(CCN3CCOCC3)c3ccccc23)cc1,inactive
8,CCc1nn(C)c(C(=O)NCc2ccc(Oc3ccc(C)cc3)cc2)c1Cl,"inconclusive: 1 µM [cytotoxic, full curve]"
9,CC(N)Cc1c[nH]c2ccccc12 (configuration not stated),inactive
10,CC[C@@H]1/C=C/C=C/C[C@H](C)C(O)[C@](C)(O)C(=O)[C@H](C)C(O)[C@H](C)C(=O)[C@H](C)[C@@H](O)[C@H](C)/C=C/C(=O)O[C@H]2[C@@H](C)[C@@H](CC1)O[C@]1(O[C@H](C[C@H](C)O)[C@H](C)CC1=O)[C@@H]2C (some centres not stated),"inconclusive: 0.178 µM [cytotoxic, full curve, poor fit]"
11,CCCN(CCC)CCc1c[nH]c2ccccc12,"inconclusive: 44.7 µM [cytotoxic, single point]"
12,COC1CC(O[C@H]2CC[C@]3(C=O)C4CC[C@]5(C)[C@@H](C6=CC(=O)OC6)CC[C@]5(O)[C@@H]4CC[C@]3(O)C2)OC(C)C1O[C@@H]1O[C@H](CO)[C@@H](O)[C@H](O)[C@H]1O (some centres not stated),active: 0.316 µM
13,CC#C[C@]1(O)CC[C@H]2[C@@H]3C[C@H](C)C4=CC(=O)CC[C@]4(C)[C@H]3CC[C@@]21C,active: 25.1 µM
14,C=CCC1=C(C)C(OC(=O)C2C(C=C(C)C)C2(C)C)CC1=O (configuration not stated),"inconclusive: 89.1 µM [cytotoxic, single point]"
15,OC1(c2ccc(Cl)cc2)c2ccccc2C2=NCCN21 (configuration not stated),inactive
16,OCCCBr,"inconclusive: 17.8 µM [rising, partial curve, poor fit]"
17,COP(=S)(OC)Oc1ccc(SC)c(C)c1,"inconclusive: 0.501 µM [rising, partial curve, poor fit]"
18,CC(=O)OC[C@]12C[C@H](OC(=O)CC(C)C)C(C)=C[C@H]1O[C@@H]1[C@H](O)[C@@H](OC(C)=O)[C@@]2(C)[C@@]12CO2,"inconclusive: 0.1 µM [cytotoxic, full curve, poor fit]"

# Reference: PubChem BioAssay (NCATS)
